According to a collection of fitness landscapes (doi:10.1016/j.celrep.2020.107928):
In all, about 81,000 sequences were measured (“one-hybrid fitness for binding parS DNA”: median about -0.17, highest 2% from about 0.51 on). This is one part of the list.

B1: Caulobacter ParB omega fusion; a variant is named by its letters at X, in order, B8GW30 (parent)
chain: MESVVVGEPGMSEGRRGLGRGLSALLGEVDAAPAQAPGEQLGGSREAPIEILQRNPDQPRRTFREEDLEDLSNSIREKGVLQPILVRPSPDTAGEYQIVAGERAWRAAQRAGLKTVPIMVRELDDLAVLEIGIIENVQRADLNVLEEALSYKVLMEKFERTQENIAQTIGKSXSHVANXMRLLXLPDEVQSYLVSGELTAXHARAIAAAADPVALAKQIIEGGLSVRETEALARKAPNLSAGKSKGGRPPRVKDTDTQALESDLSSVLGLDVSIDHRGSTGTLTITYATLEQLDDLCNRLTRGI

Variants of: B1
Experiment: one-hybrid fitness for binding parS DNA (scaled: cognate 1, non-cognate 0); higher = stronger binding
Settings: with parS DNA site
How it was run: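 In E. coli USO, a HIS3 reporter with its site placed 19 bp from the promoter was used to select Caulobacter ParB variants randomised at four specificity codons. Growth lasted 48 hours at 37°C on histidine-free M9 containing 0.1 mM IPTG and 5 mM 3-AT. Fitness was taken as the log change in variant-to-wild-type read ratio from Illumina sequencing of pre- and post-selection plasmids, rescaled between the non-cognate and cognate sites.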

Variant | one-hybrid fitness for binding parS DNA
KDTK | ≤ 0.2
QKVY | ≤ 0.2
QSLR | ≤ 0.2
RICF | 0.282
YTVG | ≤ 0.2
AREQ | ≤ 0.2
SSCS | ≤ 0.2
EDQD | ≤ 0.2
LITC | ≤ 0.2
KNNS | ≤ 0.2
HTLS | ≤ 0.2
KKWR | ≤ 0.2
ALAV | ≤ 0.2
QRIN | ≤ 0.2
NYQT | ≤ 0.2
MPHS | ≤ 0.2
PQNY | ≤ 0.2
ILKS | ≤ 0.2
GTSV | ≤ 0.2
DMFV | ≤ 0.2
MSVI | ≤ 0.2
YCYT | ≤ 0.2
DIPR | ≤ 0.2
TCFF | ≤ 0.2
EASG | ≤ 0.2

Variant | one-hybrid fitness for binding parS DNA
APTI | ≤ 0.2
RFRR | ≤ 0.2
LLYA | ≤ 0.2
YSWS | ≤ 0.2
FWKG | ≤ 0.2
QNYR | ≤ 0.2
SSEG | ≤ 0.2
KDSG | ≤ 0.2
CVIG | ≤ 0.2
VKSK | ≤ 0.2
KHSN | ≤ 0.2
PRWG | ≤ 0.2
LYAI | ≤ 0.2
RPNI | ≤ 0.2
WWDS | ≤ 0.2
YSCG | ≤ 0.2
AFAR | ≤ 0.2
RTYL | ≤ 0.2
FWLC | ≤ 0.2
LCQR | ≤ 0.2
KENE | ≤ 0.2
QLIM | ≤ 0.2
LLHD | ≤ 0.2
AASI | ≤ 0.2
LNHF | ≤ 0.2

Variant | one-hybrid fitness for binding parS DNA
QAEC | ≤ 0.2
WHQI | ≤ 0.2
WDIS | ≤ 0.2
TATR | ≤ 0.2
PEEA | ≤ 0.2
HSGE | ≤ 0.2
RCMG | 1.03
PPWK | ≤ 0.2
HFRC | ≤ 0.2
STTC | ≤ 0.2
VAYN | ≤ 0.2
PAMT | ≤ 0.2
QPQM | ≤ 0.2
MYRG | ≤ 0.2
YDME | ≤ 0.2
GWVW | ≤ 0.2
HLKF | ≤ 0.2
IWWV | ≤ 0.2
TMKY | ≤ 0.2
QNSG | ≤ 0.2
KEDT | ≤ 0.2
PLKN | ≤ 0.2
RSMY | 0.434
KSAG | ≤ 0.2
KSAC | ≤ 0.2

Variant | one-hybrid fitness for binding parS DNA
QRSH | ≤ 0.2
VWGA | ≤ 0.2
DLGT | ≤ 0.2
RPYT | ≤ 0.2
PPKS | ≤ 0.2
SDML | ≤ 0.2
NCYR | ≤ 0.2
RASI | ≤ 0.2
IAMG | ≤ 0.2
VRNE | ≤ 0.2
LEMT | ≤ 0.2
SHEY | ≤ 0.2
WYTV | ≤ 0.2
ACTA | ≤ 0.2
QTSL | ≤ 0.2
RHGK | ≤ 0.2
QMYC | ≤ 0.2
PWEG | ≤ 0.2
ERFN | ≤ 0.2
SSMK | ≤ 0.2
HYAF | ≤ 0.2
SDTA | ≤ 0.2
TQVL | ≤ 0.2
ALYA | ≤ 0.2
STDT | ≤ 0.2

Variant | one-hybrid fitness for binding parS DNA
RVPY | ≤ 0.2
KAHS | ≤ 0.2
YHIG | ≤ 0.2
WTGV | ≤ 0.2
NTFG | ≤ 0.2
IGMG | ≤ 0.2
DAVE | ≤ 0.2
TPGG | ≤ 0.2
GMLY | ≤ 0.2
QVFN | ≤ 0.2
KLCY | ≤ 0.2
QYTP | ≤ 0.2
SHMA | ≤ 0.2
DRIL | ≤ 0.2
ETAC | ≤ 0.2
PYDT | ≤ 0.2
GSAV | ≤ 0.2
PDTV | ≤ 0.2
TQKM | ≤ 0.2
LRGT | ≤ 0.2
KDIE | ≤ 0.2
PKAI | ≤ 0.2
YSSN | ≤ 0.2
CNAL | ≤ 0.2
AAVL | ≤ 0.2

Variant | one-hybrid fitness for binding parS DNA
IAHR | ≤ 0.2
TPAN | ≤ 0.2
MGQR | ≤ 0.2
TDSP | ≤ 0.2
NMMG | ≤ 0.2
TNQI | ≤ 0.2
ASHM | ≤ 0.2
PLGL | ≤ 0.2
QSMF | ≤ 0.2
VSHC | ≤ 0.2
YKDY | ≤ 0.2
DRCA | ≤ 0.2
CSMF | ≤ 0.2
KAHL | ≤ 0.2
RWLA | 0.384
VGCD | ≤ 0.2
RIFD | ≤ 0.2
SCYC | ≤ 0.2
QQAN | ≤ 0.2
DFMS | ≤ 0.2
CIQR | ≤ 0.2
FKRH | ≤ 0.2
LCSV | ≤ 0.2
ELYN | ≤ 0.2
DGHS | ≤ 0.2

Variant | one-hybrid fitness for binding parS DNA
RNLH | ≤ 0.2
HKHR | ≤ 0.2
WRQY | ≤ 0.2
PQPQ | ≤ 0.2
YNID | ≤ 0.2
YPDS | ≤ 0.2
CNNT | ≤ 0.2
PFSY | ≤ 0.2
TKGG | ≤ 0.2
FITG | ≤ 0.2
TNGI | ≤ 0.2
IQSC | ≤ 0.2
NVAR | ≤ 0.2
SATP | ≤ 0.2
RYPC | 0.477
DCNA | ≤ 0.2
INAT | ≤ 0.2
WICR | ≤ 0.2
FLPV | ≤ 0.2
FWNS | ≤ 0.2
VDQS | ≤ 0.2
PKVC | ≤ 0.2
RKLR | ≤ 0.2
QPTQ | ≤ 0.2
CQAF | ≤ 0.2

Variant | one-hybrid fitness for binding parS DNA
TYWR | ≤ 0.2
TGEL | ≤ 0.2
RNVT | 0.514
QNKC | ≤ 0.2
IERT | ≤ 0.2
ESRI | ≤ 0.2
RMCF | 0.217
TMYC | ≤ 0.2
ETVG | ≤ 0.2
TPGI | ≤ 0.2
IKTH | ≤ 0.2
CAPF | ≤ 0.2
QYTH | ≤ 0.2
AHHR | ≤ 0.2
WHVR | ≤ 0.2
GFVI | ≤ 0.2
EARG | ≤ 0.2
NVRG | ≤ 0.2
QIHE | ≤ 0.2
YQDA | ≤ 0.2
